Measured values reported in PubChem BioAssay AID1956 (SRMLSC, 2009).
Out of some 220,000 compounds screened, about 10 (0.005%) were called active. Inconclusive means that the source gave no clear call. Such entries were picked first, then a sample of the others. Cut-off read from the data, not from the text of the source: active = maximum fold increase above about 1.5; inconclusive = no clear call, values can overlap the other calls; inactive = below that; tested in PC3 cells.

Test: compounds boosting herpes simplex virus growth – fold increase, host cell viability (AID 1956)
Details: HSV replication augmentation in cells; at 25 µM, hits give high values unless noted

Row | Structure (SMILES) | maximum fold increase
1 | Cc1ccc(CNc2ccc3c(c2)OCO3)c(C)c1 | inconclusive
2 | Cc1nc2c3cc(F)ccc3n(Cc3ccccc3)c2s1 | inactive
3 | CCOC(=O)c1cc(C(=O)c2ccccc2O)cn2c(=O)c3c(C)c(C)sc3nc12 | inconclusive
4 | COc1cc(/C=C2/SC(=S)N(c3ccccc3)C2=O)ccc1Oc1nc(N2CCOCC2)nc(N2CCOCC2)n1 | inconclusive
5 | Cc1nonc1NC(=O)CSc1nc2c(C)cccc2cc1C#N | inconclusive
6 | Nc1ccc(Oc2ccc(F)cc2)nc1 | inconclusive
7 | O=C(Nc1ccc(O)cc1)c1ccc(C(=O)c2ccccc2)o1 | inconclusive
8 | COC(=O)C[N+](C)(C)CC#Cc1ccccc1 | inactive
9 | O=C(Nc1cccnc1Cl)C1c2ccccc2Oc2ccccc21 | inconclusive
10 | CCn1c(C)c(C(C)=O)c(N2CCN(c3cccc(Cl)c3)CC2)nc1=S | inconclusive
11 | CC(=Nc1cccc(C)c1)c1sc2ccccc2c1O | inconclusive
12 | CC(=O)Oc1ccc(-c2cc3c(OC(C)=O)cc(OC(C)=O)cc3oc2=O)cc1 | inactive
13 | COc1ccc(-c2cc(-c3ccco3)[nH]c(=O)c2C#N)cc1OC | inconclusive
14 | CCOc1ccc(C2C=C(c3ccccc3)Nc3nnnn32)cc1 (centres undefined) | inconclusive
15 | O=c1cc(-c2ccccc2)[nH]n1-c1nc2ccccc2[nH]1 | inconclusive
16 | CC1CCN(C(=S)c2cn(Cc3ccccc3F)c3ccccc23)CC1 | inconclusive
17 | CC1CCc2c(sc(Nc3nc4c(F)cccc4s3)c2C(N)=O)C1 (centres undefined) | inconclusive
18 | COc1ccccc1C(C)NCC(=O)Nc1c(F)cccc1F (centres undefined) | inactive
19 | CCOC(=O)c1cc(C)sc1/N=C/C1=C(O)CCCC1=O | inactive
20 | CC(NC(=O)/C(C#N)=C1\N=C(NC(=O)c2cccs2)c2ccccc21)c1ccccc1 (centres undefined) | inconclusive
21 | COc1cc(/C=C2/SC(=NCc3ccccc3)N(Cc3ccccc3)C2=O)ccc1O | inconclusive
22 | Cc1ccc(C(=O)NC(=S)/C=C2\N(C)c3ccccc3C2(C)C)cc1 | inconclusive
23 | CCCn1c(N)c(C(=O)CSc2nc3ccccc3n2CCC#N)c(=O)n(C)c1=O | inconclusive
24 | O=C(NC1CCCCC1)C(c1cccs1)N(C(=O)c1ccco1)c1ccc2c(c1)OCCO2 (centres undefined) | inconclusive
25 | COc1ccc(C2c3ccc(O)cc3Oc3ncn(Cc4ccco4)c(=N)c32)cc1 (centres undefined) | inconclusive

Row | Structure (SMILES) | maximum fold increase
26 | Cc1nn(-c2ccccc2)c2[nH]c(=O)c(CNc3ccc(N4CCOCC4)cc3)cc12 | inconclusive
27 | Cc1ccc(C)c(NC(=O)Cc2ccc(S(=O)(=O)N3CCCCC3)s2)c1 | inactive
28 | CCOc1[nH]n(-c2ccc(Cl)cc2)c(=O)c1C=Nc1ccc(OC)cc1 | inconclusive
29 | O=C(N=c1ccn(-c2nc3ccccc3nc2NS(=O)(=O)c2ccc(Cl)cc2)cc1)c1ccccc1Cl | inconclusive
30 | Cc1nc2c(-c3ccccc3)c(C)nn2c(N)c1-c1ccccc1 | inactive
31 | CCNC(=O)COc1ncnc2scc(-c3ccc(F)cc3)c12 | inactive
32 | COc1cc(/C=C2\SC(=S)N(c3cccnc3)C2=O)ccc1O | active: 2.81
33 | COc1ccc(S(=O)(=O)c2c(N)n(Cc3ccco3)c3nc4ccccc4nc23)cc1 | inconclusive
34 | Cc1ccc(CC2S/C(=C(/C#N)C(=O)NCc3ccco3)N(c3ccccc3)C2=O)cc1 (centres undefined) | inconclusive
35 | CCC(C)(C)NC(=O)C(c1ccc(OC)cc1)N(CC1CCCO1)C(=O)CCC(=O)Nc1cc(C)on1 (centres undefined) | inactive
36 | O=C(O)Cc1sc(N/N=C\c2ccccc2)nc1-c1ccccc1 | inconclusive
37 | CC1=CSC2=NC(C(F)(F)F)(C(F)(F)F)NC(=O)N12 | inconclusive
38 | Cc1ccc(C(=O)c2cc([N+](=O)[O-])ccc2N2CCCCC2)cc1C | inactive
39 | CCOC(=O)c1sc2nc(CC(=O)OC)nc(NCc3ccco3)c2c1C | inconclusive
40 | Cc1ccc(-n2c(SCC(=O)Nc3ccc4c(c3)OCO4)nnc2-c2cccs2)cc1 | inconclusive
41 | CC(C)OC(=O)CC(=O)c1sc2nc3c(cc2c1N)CN(C)CC3 | inconclusive
42 | CCOc1c(CNCCN2CCOCC2)cccc1OC | inconclusive
43 | Cc1ccc(C(=O)NC(=C(Cl)Cl)S(=O)(=O)c2ccc(C)cc2)cc1 | inactive
44 | Brc1ccc(C2=CC(c3ccco3)n3ncnc3N2)cc1 (centres undefined) | inconclusive
45 | Cc1ccc(C)c2sc(NC(=O)c3ccc(N4CCCCC4)c([N+](=O)[O-])c3)nc12 | inactive
46 | O=C(Cc1nc2ccccc2[nH]c1=O)c1ccc(Cl)cc1 | inconclusive
47 | COC(=O)C(C(C)=O)C1=C/C(=N\S(=O)(=O)c2ccc(C)cc2)c2ccccc2C1=O (centres undefined) | inconclusive
48 | Clc1ccc(C2=CC(c3ccco3)n3ncnc3N2)cc1 (centres undefined) | inconclusive
49 | O=C(C1=NN(c2ccccc2)C2C(=O)N(c3ccccc3Cl)C(=O)C12)c1ccccc1 (centres undefined) | inconclusive
50 | Cn1/c(=N/N=C/c2ccc([N+](=O)[O-])cc2)sc2ccccc21 | inconclusive

Row | Structure (SMILES) | maximum fold increase
51 | CCOC(=O)C1(CC2CCCCO2)CCN(Cc2nc(C(C)C)cs2)CC1 (centres undefined) | inactive
52 | COc1ccc2c(c1)CC/C(=C\c1ccc(C)o1)C2=O | inconclusive
53 | O=C(O)c1cn(-c2ccc(N3CCCC3)c(F)c2)c2c(F)c(F)c(F)cc2c1=O | inconclusive
54 | CCOc1ccc2c(c1)C(c1ccc(C)cc1)=NNC(c1ccc(C)cc1)=N2 | inconclusive
55 | O=C(COc1cc(O)c2c(=O)cc(-c3ccccc3)oc2c1)c1ccccc1 | inactive
56 | CCOC(=O)c1c(NC(=O)c2cccnc2)sc(C)c1C | inactive
57 | O=C(N/N=C\c1c(O)ccc2ccccc12)c1ccc(Cn2cccn2)o1 | inconclusive
58 | CCN(CC)c1nc2c3c(nc4c(c3c1C#N)CC(=O)N4c1ccc(Cl)cc1)NC(C)=N2 | inconclusive
59 | COc1ccc(N2CCN(c3ccc(Cl)nn3)CC2)cc1 | inactive
60 | CC(=O)CC1(C)OC(N)=C(C#N)C1(C#N)C#N (centres undefined) | inconclusive
61 | Cn1cccc1/C=C1\SC(=S)N(Nc2ccccc2)C1=O | inconclusive
62 | CCCn1c(SCC(=O)NCc2ccc(Cl)cc2)n[nH]c1=O | inactive
63 | O=C(Nc1cccc(-c2nnc(-c3ccco3)o2)c1)C(c1ccccc1)c1ccccc1 | inconclusive
64 | CCCCC(=O)NC(=S)NNC(=O)CC | inconclusive
65 | Cc1ccccc1CSc1nnc([C@@H]2CCCN2)o1 | inactive
66 | Cc1ccc(-n2nc3cc(C)c(N)cc3n2)cc1 | inconclusive
67 | Cc1ccc(SCC(=O)Nc2ccc(-c3nnc(-c4ccco4)o3)cc2)cc1 | inconclusive
68 | COc1nccnc1NS(=O)(=O)c1ccc(N=Cc2c(C)[nH]n(-c3ccc(Cl)cc3)c2=O)cc1 | inactive
69 | CC(=O)c1ccc(Nc2c3c(c(C#N)c4nc5ccccc5n24)CCC3)cc1 | inconclusive
70 | COC(=O)C1=COC(C)C2CN3CCc4c([nH]c5cc(OC)c(OC)cc45)C3CC12 (centres undefined) | inconclusive
71 | COc1ccc(/C=c2\s/c(=C/C(=O)c3ccc(C)cc3)[nH]c2=O)c(OC)c1 | inconclusive
72 | Cc1ccc(C2=CC(c3ccc(N(C)C)cc3)n3nnnc3N2)cc1 (centres undefined) | inconclusive
73 | COc1ccc(CN2C(=O)Cc3c2nc(N)c2c(N)nc(N4CCCCC4)c(C#N)c32)cc1 | inconclusive
74 | CN(c1ccccc1)c1ccc(/C=c2\s/c(=C(/C#N)C(=O)C(C)(C)C)n(Cc3ccco3)c2=O)cc1 | inconclusive
75 | CCCN1C(=O)S/C(=C/c2ccc(N3CCOCC3)o2)C1=O | inconclusive

Row | Structure (SMILES) | maximum fold increase
76 | COc1ccc(NC(=O)CSc2nncc3ccccc23)cc1 | inactive
77 | CC(C)n1c(SCC(=O)Nc2nc3ccccc3s2)nc2c1c(=O)n(C)c(=O)n2C | inconclusive
78 | NNC(=O)c1oc2nc(-c3ccccc3)cc(-c3ccco3)c2c1N | inconclusive
79 | CN=C1SC(CC(=O)Nc2ccccc2F)C(=O)N1/N=C/c1ccc(O)c(OC)c1 (centres undefined) | inactive
80 | COc1ccccc1N1C(=O)C2C(C(=O)c3ccccc3)=NN(c3ccc(Br)cc3)C2C1=O (centres undefined) | inconclusive
81 | CC(C)OC(=O)C(C(=O)C(F)(F)F)c1cc(NS(=O)(=O)c2ccc3ccccc3c2)c2ccccc2c1O (centres undefined) | inconclusive
82 | CCN(CC)c1ccc2cc(S(=O)(=O)c3ccc(C)cc3)c(=O)oc2c1 | inactive
83 | C=CCn1c(C)c(C(C)=O)c(N2CCN(c3ccccc3)CC2)nc1=S | inconclusive
84 | Oc1nc(Nc2ccccc2)sc1/C=C1\C=Nc2ccccc21 | inactive
85 | COC(=O)C1=C(C(=O)OC)SC2(S1)C(C(=O)OC)=C(C(=O)OC)SC1=C2c2cc(C)ccc2NC1(C)C | inconclusive
86 | CS(=O)(=O)N1CCN(C(=O)NC2CCCCC2)CC1 | inactive
87 | COc1ccc(C2CC(=O)C=C(NNS(=O)(=O)c3ccc(C)cc3)C2)cc1 (centres undefined) | inconclusive
88 | CC(=O)c1sc(N/N=C\c2cccc(Br)c2)nc1C | inconclusive
89 | CN1CCc2c(sc(/N=C/c3cccs3)c2C(N)=O)C1 | inconclusive
90 | O=C(Cn1cc2c(n1)CCCC2)NCc1cccs1 | inactive
91 | O=C(NC(=S)NCc1ccc2c(c1)OCO2)c1ccccc1 | inactive
92 | Cc1c2ccccc2nc2c(F)c(N(C)C)c(F)c(F)c12 | inconclusive
93 | O=C(CCCCCNC(=O)c1ccccc1)C[N+](=O)[O-] | inconclusive
94 | COc1cc2cc(CN(Cc3nnnn3Cc3ccco3)C3CCCCC3)c(=O)[nH]c2cc1OC | inconclusive
95 | FC(F)Sc1ccc(NC(=S)NC2CCC(NC(=S)Nc3ccc(SC(F)F)cc3)CC2)cc1 (centres undefined) | inconclusive
96 | COc1cccc(-c2cc3c(=O)n(-c4ccccc4)c(=S)[nH]c3s2)c1 | inconclusive
97 | N#Cc1c(-c2ccc(F)cc2)cc(C2CC2)nc1SCC(=O)c1cccs1 | inconclusive
98 | Cc1nc2nc(C)c(CCC(=O)O)c(C)n2n1 | inactive
99 | Cc1cc(C)c2c(=O)[nH]c(SCC(=O)NCCc3ccccc3)nc2n1 | inactive
